Assay results: the supplement of paper PMC4967469
By IC50 is meant the dose at which the fit gives 50% viability; where the fit passes the top or lowest dose, that dose stands as a limit. AUC is the area under the same curve over the 256-fold range up to the top dose, as a fraction; values near 1 show little effect. The top dose, if marked as inferred, is not printed in the source and was worked back from the curve model.

How the values were obtained:
Experiment in all cases: Viability of human cancer cell lines after 72 h of drug (GDSC screen)
EKB-569 = compound: CCOc1cc2ncc(C#N)c(Nc3ccc(F)c(Cl)c3)c2cc1NC(=O)/C=C/CN(C)C [EKB-569]; details: top dose inferred
Method: (§1)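 Human cancer cell lines in 384-well plates, medium with 10% serum, drug for 72 h over a 256-fold dose range (nine 2-fold or five 4-fold steps up to the top dose). Adherent lines were fixed and stained with the nucleic acid dye Syto60, suspension lines read with resazurin; signal relative to control wells, capped at 0 and 100%. One two-parameter sigmoid per drug and line, fitted in a mixed model over all curves with the slope shared within a line.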

PFI-1 = compound: COc1ccccc1S(=O)(=O)Nc1ccc2c(c1)CN(C)C(=O)N2 [PFI-1]; details: top dose 10 µM; top dose inferred
Method: as §1

NG-25 = compound: CCN1CCN(Cc2ccc(NC(=O)c3ccc(C)c(Oc4ccnc5[nH]ccc45)c3)cc2C(F)(F)F)CC1 [NG-25]; details: top dose 10.24 µM; top dose inferred
Method: as §1

Row | Cell Line | AUC (EKB-569) | IC50 (EKB-569) [µM] | AUC (PFI-1) | IC50 (PFI-1) [µM] | AUC (NG-25) | IC50 (NG-25) [µM]
1 | 8-MG-BA (glioma, adherent, top dose 2.5 µM) | 0.838 | 1.54 | – | – | – | –
2 | 22RV1 (prostate, adherent, top dose 2.5 µM) | 0.972 | > 2.5 | – | – | – | –
3 | 42-MG-BA (glioma, adherent, top dose 2.5 µM) | 0.97 | > 2.5 | – | – | – | –
4 | 201T (lung adenocarcinoma, adherent, top dose 2.5 µM) | 0.966 | > 2.5 | – | – | – | –
5 | 451Lu (melanoma, adherent, top dose 2.5 µM) | 0.977 | > 2.5 | – | – | – | –
6 | 639-V (bladder, adherent, top dose 2.5 µM) | 0.98 | > 2.5 | – | – | – | –
7 | 647-V (bladder, adherent, top dose 2.5 µM) | 0.823 | 1.48 | – | – | – | –
8 | 697 (lymphoblastic leukaemia, suspension, top dose 2.5 µM) | 0.365 | 0.0719 | – | – | – | –
9 | 769-P (kidney, adherent, top dose 2.5 µM) | 0.44 | 0.106 | – | – | – | –
10 | 786-0 (kidney, adherent, top dose 2.5 µM) | 0.815 | 1.24 | – | – | – | –
11 | 5637 (bladder, adherent, top dose 2.5 µM) | 0.844 | 1.54 | – | – | – | –
12 | 8305C (thyroid, adherent, top dose 2.5 µM) | 0.966 | > 2.5 | – | – | – | –
13 | 8505C (thyroid, adherent, top dose 2.5 µM) | 0.93 | > 2.5 | – | – | – | –
14 | 23132-87 (stomach, adherent, top dose 2.5 µM) | 0.959 | > 2.5 | – | – | – | –
15 | A3-KAW (B-cell lymphoma, suspension, top dose 2.5 µM) | 0.42 | 0.0989 | – | – | – | –
16 | A4-Fuk (B-cell lymphoma, suspension, top dose 2.5 µM) | 0.949 | > 2.5 | – | – | – | –
17 | A101D (melanoma, adherent, top dose 2.5 µM) | 0.981 | > 2.5 | – | – | – | –
18 | A172 (glioma, adherent, top dose 2.5 µM) | 0.962 | > 2.5 | – | – | – | –
19 | A204 (rhabdomyosarcoma, adherent, top dose 2.5 µM) | 0.884 | > 2.5 | – | – | – | –
20 | A253 (head and neck, adherent, top dose 2.5 µM) | 0.85 | 1.82 | – | – | – | –
21 | A375 (melanoma, adherent, top dose 2.5 µM) | 0.991 | > 2.5 | – | – | – | –
22 | A388 (skin, adherent, top dose 2.5 µM) | 0.829 | 1.89 | – | – | – | –
23 | A427 (non-small cell lung carcinoma, adherent, top dose 2.5 µM) | 0.941 | > 2.5 | – | – | – | –

Row | Cell Line | AUC (EKB-569) | IC50 (EKB-569) [µM] | AUC (PFI-1) | IC50 (PFI-1) [µM] | AUC (NG-25) | IC50 (NG-25) [µM]
24 | A498 (kidney, adherent, top dose 2.5 µM) | 0.966 | > 2.5 | – | – | – | –
25 | A673 (rhabdomyosarcoma, adherent, top dose 2.5 µM) | 0.98 | > 2.5 | – | – | – | –
26 | A704 (kidney, adherent, top dose 2.5 µM) | 0.989 | > 2.5 | – | – | – | –
27 | A2058 (melanoma, adherent, top dose 2.5 µM) | 0.961 | > 2.5 | – | – | – | –
28 | A2780 (ovary, semi-adherent, top dose 2.5 µM) | 0.636 | 0.376 | – | – | – | –
29 | ABC-1 (lung adenocarcinoma, adherent, top dose 2.5 µM) | 0.834 | 2.11 | – | – | – | –
30 | ACHN (kidney, adherent, top dose 2.5 µM) | 0.808 | 1.52 | – | – | – | –
31 | AGS (stomach, adherent, top dose 2.5 µM) | 0.972 | > 2.5 | – | – | – | –
32 | ALL-PO (lymphoblastic leukaemia, suspension, top dose 2.5 µM) | 0.457 | 0.119 | – | – | – | –
33 | ALL-SIL (T-cell leukaemia, suspension, top dose 20 µM) | 0.079 | < 0.0781 | – | – | – | –
34 | AM-38 (glioma, semi-adherent, top dose 2.5 µM) | 0.881 | > 2.5 | – | – | – | –
35 | AMO-1 (haematopoietic neoplasm, suspension, top dose 2.5 µM) | 0.967 | > 2.5 | – | – | – | –
36 | AN3-CA (endometrium, adherent, top dose 2.5 µM) | 0.98 | > 2.5 | – | – | – | –
37 | ARH-77 (myeloma, suspension, top dose 2.5 µM) | 0.79 | 1.07 | – | – | – | –
38 | ASH-3 (thyroid, adherent, top dose 2.5 µM) | 0.983 | > 2.5 | – | – | – | –
39 | ATN-1 (T-cell lymphoblastic leukaemia, suspension, top dose 20 µM) | 0.465 | 1.01 | – | – | – | –
40 | AU565 (breast, adherent, top dose 2.5 µM) | 0.547 | 0.213 | – | – | – | –
41 | AsPC-1 (pancreas, adherent, top dose 2.5 µM) | 0.926 | > 2.5 | – | – | – | –
42 | BB30-HNC (head and neck, adherent, top dose 2.5 µM) | 0.623 | 0.337 | – | – | – | –
43 | OV-56 (ovary, adherent) | – | – | 0.958 | > 10 | 0.945 | > 10.2
44 | OVCA420 (ovary, adherent) | – | – | 0.71 | 3.03 | 0.894 | > 10.2
45 | OVCA433 (ovary, adherent) | – | – | 0.882 | > 10 | 0.932 | > 10.2
46 | OVK-18 (ovary, adherent) | – | – | 0.892 | > 10 | 0.973 | > 10.2

Row | Cell Line | AUC (EKB-569) | IC50 (EKB-569) [µM] | AUC (PFI-1) | IC50 (PFI-1) [µM] | AUC (NG-25) | IC50 (NG-25) [µM]
47 | PEO1 (ovary, adherent) | – | – | 0.84 | 7.31 | 0.855 | 8.69
48 | QGP-1 (pancreas, adherent) | – | – | 0.924 | > 10 | 0.897 | > 10.2
49 | RCC-AB (kidney, adherent) | – | – | 0.876 | > 10 | 0.809 | 7.42
50 | RCC-ER (kidney, adherent) | – | – | 0.945 | > 10 | 0.985 | > 10.2
51 | RCC-FG2 (kidney, adherent) | – | – | 0.932 | > 10 | 0.841 | 10.2
52 | RCC-JF (kidney, adherent) | – | – | 0.942 | > 10 | 0.857 | 10.1
53 | RCC-JW (kidney, adherent) | – | – | 0.9 | > 10 | 0.91 | > 10.2
54 | RCC-MF (kidney, adherent) | – | – | 0.838 | 9.89 | 0.718 | 3.24
55 | SK-GT-4 (oesophagus, adherent) | – | – | 0.801 | 6.31 | 0.909 | > 10.2
56 | SK-MEL-5 (melanoma, adherent) | – | – | 0.851 | > 10 | 0.983 | > 10.2
57 | SK-MG-1 (glioma, adherent) | – | – | 0.87 | 9.53 | 0.897 | > 10.2
58 | SNU-61 (large intestine, adherent) | – | – | 0.958 | > 10 | 0.955 | > 10.2
59 | SNU-81 (large intestine, adherent) | – | – | 0.968 | > 10 | 0.975 | > 10.2
60 | SNU-407 (large intestine, adherent) | – | – | 0.852 | 9.83 | 0.88 | > 10.2
61 | SNU-1040 (large intestine, adherent) | – | – | 0.938 | > 10 | 0.836 | > 10.2
62 | SNU-C5 (large intestine, adherent) | – | – | 0.883 | > 10 | 0.958 | > 10.2
63 | SU-DHL-10 (B-cell lymphoma, suspension) | – | – | 0.718 | 2.1 | 0.892 | 6.02
64 | SW1116 (large intestine, adherent) | – | – | 0.925 | > 10 | 0.985 | > 10.2
65 | TE-4 (oesophagus, adherent) | – | – | 0.97 | > 10 | 0.986 | > 10.2
66 | UWB1.289 (ovary, adherent) | – | – | 0.898 | > 10 | 0.852 | > 10.2
67 | YH-13 (glioma, adherent) | – | – | 0.819 | 6.1 | 0.908 | > 10.2
